This is one part of the list. The full chains were built here from the parent and the listed change. Inactive controls read about 0.05.
B1: TEV protease; numbered along this chain (parent)
chain: MGESLFKGPRDYNPISSSICHLTNESDGHTTSLYGIGFGPFIITNKHLFRRNNGTLVVQSLHGVFKVKDTTTLQQHLVDGRDMIIIRMPKDFPPFPQKLKFREPQREERICLVTTNFQTKSMSSMVSDTSCTFPSGDGIFWKHWIQTKDGQCGSPLVSTRDGFIVGIHSASNFTNTNNYFTSVPKNFMELLTNQEAQQWVSGWRLNADSVLWGGHKVFMVKPEEPFQPVKEATQL

Variants of: B1
Experiment: raw area under fraction-flipped curve 0-4 h after induction (AUC4h, not background-subtracted), DNA-recorder readout of cleavage of the substrate (dimensionless); higher = more cleavage of the substrate by the protease variant
Conditions: temperature: 34 °C; time window: 0-4 h after rhamnose induction
Description: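 In vivo DNA recorder in E. coli TOP10(DE3) ΔrhaA at 34 °C. Each TEVp single-site mutant (parent TEVp 0) is paired with a single-site variant of the 7-mer TEVs (canonical ENLYFQ|S). The substrate sits between flexible linkers in a Bxb1-sfGFP-TEVs-SsrA fusion, so cleavage stabilises Bxb1 and speeds flipping of a recombination array, read by NGS. The value is the raw area under the fraction-flipped curve over 0-4 h after rhamnose induction (AUC4h), with ≥20 reads per time point. It is not background-subtracted; inactive controls average about 0.047.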
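Also: Bxb1 expression induced with 0.2% (w/v) L-rhamnose at OD600 near 0.5, cultures sampled hourly, flipped fraction per protease–substrate barcode pair counted by paired-end Illumina sequencing.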

| Variant | area with substrate EALYFQS | area with substrate EDLYFQS | area with substrate EELYFQS | area with substrate EGLYFQS | area with substrate EHLYFQS | area with substrate EILYFQS | area with substrate EPLYFQS | area with substrate EQLYFQS | area with substrate ERLYFQS | area with substrate ESLYFQS | area with substrate ETLYFQS | area with substrate EVLYFQS | area with substrate EWLYFQS | area with substrate ECLYFQS | area with substrate EKLYFQS | area with substrate ELLYFQS | area with substrate EFLYFQS | area with substrate EMLYFQS | area with substrate EYLYFQS |
| --- | --- | --- | --- | --- | --- | --- | --- | --- | --- | --- | --- | --- | --- | --- | --- | --- | --- | --- | --- |
| Q197V | 0.121 | 0.15 | 0.12 | 0.0897 | 0.104 | 0.0747 | 0.0853 | 0.136 | 0.113 | 0.102 | 0.148 | 0.12 | 0.0413 | – | – | – | – | – | – |
| W212G | 0.0716 | – | 0.0795 | 0.0633 | 0.0764 | – | 0.0775 | 0.064 | 0.0751 | 0.073 | – | 0.0389 | – | 0.0718 | 0.0556 | 0.0492 | – | – | – |
| R204M | 0.139 | – | 0.13 | 0.123 | 0.124 | 0.0909 | 0.105 | 0.148 | 0.13 | 0.0992 | – | 0.0951 | – | 0.112 | 0.109 | 0.0961 | 0.104 | 0.13 | 0.123 |
| R204G | 0.0864 | – | 0.116 | 0.0854 | 0.125 | 0.0759 | 0.0812 | 0.0974 | – | 0.087 | 0.11 | 0.0913 | 0.0665 | 0.116 | 0.0647 | 0.0966 | – | 0.091 | 0.0986 |
| R204V | 0.134 | – | 0.144 | 0.113 | 0.14 | 0.102 | 0.105 | 0.115 | 0.101 | 0.143 | – | 0.128 | – | 0.119 | 0.0862 | 0.126 | 0.121 | 0.101 | 0.142 |
| Q194H | 0.12 | – | – | 0.117 | 0.158 | 0.0971 | 0.156 | 0.121 | 0.0775 | 0.0975 | – | – | – | 0.121 | 0.129 | 0.116 | – | – | 0.091 |
| Q194N | 0.165 | – | – | – | – | – | – | 0.152 | – | 0.0585 | – | 0.116 | 0.121 | 0.121 | 0.116 | – | – | 0.122 | 0.0986 |
| A196F | 0.124 | – | 0.0801 | 0.106 | 0.126 | – | – | 0.102 | 0.102 | – | 0.103 | 0.0931 | 0.0901 | 0.134 | 0.11 | – | 0.123 | 0.116 | 0.112 |
| A196D | 0.109 | – | – | 0.0896 | 0.0991 | 0.0879 | 0.119 | – | – | 0.122 | – | 0.11 | 0.11 | 0.0935 | 0.0983 | – | 0.0708 | 0.105 | – |
| A196W | 0.0873 | 0.105 | – | 0.0808 | 0.103 | – | – | – | 0.093 | – | – | 0.0804 | – | 0.0972 | 0.0773 | – | – | 0.0864 | – |
| W203V | 0.072 | – | 0.064 | 0.0595 | 0.0674 | 0.0627 | – | 0.0746 | 0.049 | 0.0779 | – | 0.0771 | – | 0.0813 | 0.0751 | – | – | 0.0638 | – |
| G213R | 0.0574 | – | 0.0615 | – | 0.0635 | 0.0565 | 0.058 | 0.0681 | 0.0601 | 0.0639 | 0.0861 | 0.0727 | 0.0652 | 0.0561 | 0.0686 | 0.0594 | 0.0681 | – | 0.047 |
| S209D | 0.142 | – | 0.123 | – | – | 0.115 | – | 0.144 | 0.117 | 0.138 | 0.097 | – | – | 0.119 | – | – | – | 0.128 | – |
| G214D | 0.0722 | 0.0897 | – | 0.0617 | – | – | – | – | 0.0814 | 0.0778 | 0.0471 | 0.0706 | – | – | 0.0902 | 0.0729 | – | 0.0955 | – |
| V220E | 0.0721 | – | – | – | – | 0.0942 | 0.125 | – | 0.0653 | 0.104 | – | 0.0911 | 0.124 | 0.0972 | 0.125 | 0.107 | – | 0.113 | 0.102 |
| V220G | 0.12 | – | 0.131 | – | 0.102 | – | 0.134 | 0.12 | 0.102 | 0.121 | 0.141 | 0.112 | – | 0.142 | 0.113 | 0.0876 | 0.115 | 0.125 | – |
| E195A | 0.127 | – | 0.0781 | 0.105 | 0.112 | 0.0817 | – | 0.146 | 0.101 | 0.117 | 0.113 | 0.0923 | 0.141 | 0.0886 | 0.0985 | 0.0967 | – | – | 0.112 |
| E195R | 0.105 | – | 0.113 | 0.0991 | 0.0886 | – | 0.134 | 0.081 | – | 0.0984 | 0.108 | – | 0.0826 | – | – | – | 0.0947 | 0.153 | 0.0825 |
| E195N | 0.113 | – | 0.0959 | 0.135 | 0.0424 | 0.0937 | – | – | 0.0895 | 0.1 | 0.129 | 0.0909 | 0.098 | 0.112 | 0.0812 | 0.0999 | – | – | 0.0878 |
| L191P | 0.0499 | – | – | 0.056 | 0.06 | – | 0.0494 | – | – | 0.0506 | – | 0.0592 | – | 0.0408 | – | – | – | 0.048 | – |
| F218N | 0.0967 | 0.134 | – | – | – | 0.0781 | 0.114 | – | 0.0581 | – | – | 0.0713 | – | – | 0.0309 | – | – | 0.0993 | – |
| K221L | 0.0982 | 0.118 | – | 0.0708 | 0.0959 | 0.092 | 0.151 | 0.106 | 0.0958 | – | – | 0.0905 | 0.103 | – | 0.0799 | 0.109 | – | 0.107 | 0.1 |
| F187Y | 0.0688 | – | 0.0913 | 0.0455 | – | 0.0664 | 0.125 | – | 0.0515 | 0.0778 | – | 0.0824 | 0.0689 | – | 0.0761 | 0.0959 | 0.105 | 0.0734 | 0.0857 |
| F187D | 0.0642 | – | 0.0338 | 0.0503 | 0.111 | 0.0504 | 0.0544 | 0.0573 | 0.0606 | 0.0635 | – | 0.0439 | – | 0.0274 | – | – | – | – | – |
| F187R | 0.0595 | 0.0459 | 0.0607 | 0.0597 | – | – | – | 0.0583 | 0.0591 | 0.0537 | 0.0503 | 0.0526 | 0.0515 | – | 0.0505 | – | 0.0509 | 0.0351 | – |
| S201G | 0.0772 | – | 0.0711 | 0.0596 | – | 0.0604 | – | 0.0665 | – | 0.07 | – | – | 0.0614 | 0.062 | 0.0221 | 0.0617 | 0.0666 | – | – |
| S182R | 0.0781 | – | – | – | 0.0703 | 0.0476 | 0.0765 | – | – | 0.0585 | 0.0603 | 0.0817 | – | 0.079 | – | – | – | 0.0778 | – |
| V210N | 0.0825 | – | 0.0962 | 0.0682 | 0.102 | 0.0373 | 0.0755 | 0.0831 | 0.0573 | 0.0927 | – | 0.0935 | 0.0765 | 0.0891 | 0.0752 | 0.0619 | 0.0782 | 0.0743 | 0.0865 |
